Experimental data as given in the supplement of paper PMC9513381.

B1: B003 (protein)
chain 1: EVQLVESGGGLVQPGGSLRLSCAASEIIVGHNYMSWVRQAPGKGLEWVSIIYPGGTTYYADSVKGRFSISRDNSKNTLYLQMNSLRVEDTAVYYCARDLGPAGGMDVWGQGTTVTVSS
chain 2: AIQMTQSPSSLSASVGDRVTITCRASQDIGNDLGWYQQKPGKAPKLLIYAASSLQTGVPSRFSGSGSGTDFTLTISSLQPEDFATYYCLQDSNYPYTFGQGTKLEIK
B2: B011 (protein)
chain 1: QVQLVESGGGVVQPGRSLRLSCATSGFTFRSYAMHWVRQAPGKGLEWVAIISYDGSDKNYADSVKGRLTISRDNSKNILYLQMNSLRPEDTAIYYCARDVSCGGDCYPGGFDYWGQGTLVTVSS
chain 2: AIQMTQSPSSLSASVGDRVTITCRASQDIRNDLGWYQQKPGKAPKLLIYAASSLQNGVPSRFSGSGSGTDFTLTISSLQPEDFATYYCLQDYSSPWTFGQGTKVEFK
B3: B010 (protein)
chain 1: QVQLVESGGGVVQPGRSLRLSCATSGFTFRSYAMHWVRQAPGKGLEWVAIISHDGTEKFYADSVKGRITVSRDNSKNTLYLQLNTLRPEDTAVYYCARDVSCGGDCYPGGFDFWGQGTLVTVSS
chain 2: EIVLTQSPGTLSLSPGERATLSCRASQSVRSNYIAWYQQKPGQAPRLLINGASSRATGVPDRFSGSGSGTDFTLTISRLEPEDFAVYYCQHYDKSPSWTFGQGTKVEMK
B4: B014 (protein)
chain 1: QVQLVESGGGVVQPGKSLRLSCVGSGFTFSTYGMHWVRQAPGKGLEWVALISYDGSDEYYADSVRGRFTMSRDNSKNTLYLQMNSLRVEDTAVYYCAKQISTYYAAGIYYFDYWGQGTLVTVSS
chain 2: DIQMTQSPSSLSASIGDTVTITCQASQDINNCLIWYQQKPGKAPKILIYDASNLEAGVPSRFSGSGSGTDFTFTISSLHREDIATYYCQQCNGLPPTFGGGTKVEI
B5: B006 (protein)
chain 1: QVQLQESGPGLVKPSETLSLTCTVSGGSISSYYWSWVRQSPGKGLEWIGYIYYSGSTNYNPSLKSRVTISVDTSKSQFSLKLSSVTAADTAVYYCASYYYDSSGYSYGLDVWGQGTTVTVSS
chain 2: DIQMTQSPSSVSASVGDRVTITCRASQGVAGWLAWYQQKPGKAPKLLIYATSTLQSGVPSRFSGSGSGTDFTLTISSLQPEDFATYYCQQTNSFPLTFGGGTKVDIK
B6: B009 (protein)
chain 1: EVQLVESGGGLIQPGGSLRLSCAASGLIVSSNYMSWVRQAPGKGLEWVSVVYPGGTTYSADSVKGRFTISRDNSKNTLYLQMNSLSAEDTAVYYCARVSGGAVKVLEDAFDIWGQGTMVTVSS
chain 2: SYELTQPPSVSVAPGKTARITCGGNNIGSKSVHWYQQKPGQAPVLVIYYDSARPSGIPERFSGSNSGNTATLTISRVEAGDEADYSCQVWDTSSDRGVFGGGTKLTVL
B7: B028 (protein)
chain 1: EVQLVESGGGLIQPGGSLRLSCAASGFIVSRNYMSWVRQAPGKGLEWVSLLYAGGSTFYADSVKGRFTVSRDNSKNTLFLQMDSLRAEDTAVYYCARDLQDRGGLDYWGQGTLVTVS
chain 2: QAVVTQEPSLTVSPGGTVTLTCGFSTGAVTSGHYPYWFQQKAGQAPRTLIYDTINKHSWTPARFSASLLGGRAALTLSGAQPEDEADYYCLLSNIGARRVFGRGTKLTVL
B8: B019 (protein)
chain 1: QVQLVESGGGVVQPGRSLRLSCAASGFTFNSYAMHWVRQAPGKGLEWVAVISHDGSIKYSADALKGRFTISRDNSKNTLYLQMKSLRTEDTAVYYCARDLDPRIQVVIPGYWGQGALVTVSS
chain 2: DIQMTQSPSSLSASVGDRVTITCRASQSISTYLNWYQQKPGKAPKLLIYTTSSLQSGVPSRFSGTGSGTDFTLTISSLQPEDFATYYCQQSYSAPYTFGQGTNLDIK
B9: B007 (protein)
chain 1: EVQLVESGGGLVQPGGSLTLSCAASGLTVSSNYMSWLRQTPGKGLEWVSTIYSGGSTYYADSVKGRFTISRDNSKNTLYLQMNSLRDEDTAVYYCARDLPPGTTAPHHYYDMDVWGQGTTVIV
chain 2: EIVLTQSPATLSLSPGERATLSCRASQSVSSYLAWYQQKPGQAPRLLIYDASNRATGFPARFSGSGSGTDFTLTINSLEPEDFAVYYCQQRSNWPYTFGQGTKLEIK
B10: B013 (protein)
chain 1: QVQLVESGGGVVQPGRSLRLSCAASGFTFSTYGMHWVRQAPGKGLEWVALISYDGSDKYYADSVKGRFTISRDNSKDTLFLRLNSLRAEDTAVYYCAKQISPYYASGRSYFDYWGQGVLVTVSS
chain 2: DIQMTQSPSSLSATVGDRVTITCQASQDISYYLGWYQQKPGKAPKLVIYDASDLEAGVPSTFSGSGSGTDFTFTISSLQPEDIATYYCQQYDNLPPTFGGGTKVEIK
B11: B020 (protein)
chain 1: EVQLLESGGGLVQPGGSLRLSCAASGFTFKYFAMNWVRQAPGKGLEWVSVISGSGDNTYYADSVKGRFTISRDNSKNTLYVQMNSLRAEDTAVYYCAKDRYGGPRASTMDVWGQGTTVTV
chain 2: DIQMTQSPSSLSASVGDRVTITCQASQDITTYLNWYQQKPGNAPKLLVYDASNLETGVPSRFSGSGSGTDFTFTITSLQPEDFATYFCQQYGGHPLTFGGGTKVEIK
B12: B015 (protein)
chain 1: QVQLVQSGAEVKKPGSSVKVSCKASGGTFSNNAISWVRQAPGQGLEWMGRIIPIPGITNYAQEFQGRVTITADKSTRTAYMEVSSLRSEDTAIYYCATDVDTALFADAFDIWGQGTMVIVSS
chain 2: DIQMTQSPSSLSASVGDRVTITCRASQGISNYLAWYQQKAGKVPKLLIYAASTLQSGVPSRFSGSGSGTDFTLTISSLQPEDVATYYCQKYNSVPFTFGPGTKVDIK
B13: B026 (protein)
chain 1: QVQLVESGGGVVQPGRSLRLSCAASGFTFNTFAMHWVRQAPGRGLEWVAAISYDGTIKTYADSVKGRFTISRDTSKSTLYLQVNSLRTEDTALYYCARDSDIVRTAQFDYWGQGTLVTVSS
chain 2: DIQMTQSPSSLSASVGDRVAITCRASQSISNYLNWYQKKPGKAPNLLIYTASSLQSGVPSRFSGSGSGTDFTLTISSLQPEDFATYYCQQSYTTPYTFGQGTQLENK
B14: B016 (protein)
chain 1: EVQLVESGGGLVQPGGSLRLTCAASGITVSSNYMNWVRQAPGKGLEWVSVLYAGGSTFYADSVKGRFTISRDNSNNTLYLQMNSLRAEDTAVYYCARDLVDFGMDVWGQGTTVTVSS
chain 2: DIQMTQSPSSLSASVGDRVTITCQASQDIGNNLNWYQQKPGKAPKLLIYDASNLETGVPSRFSGSGSGTDFTLTISSLQPEDFATYYCQQYDNLPPITFGPGTKVDIK

target: SARS-CoV-2 Wuhan-Hu-1 spike pseudovirus; test: pseudovirus neutralization IC50; higher = weaker neutralization
Description: (§1)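 Single-round luciferase reporter pseudovirus mixed with antibody dilutions and put on 293T-ACE2 cells for 48 h; signal relative to no-antibody wells, four-parameter fit.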

Binder | pseudovirus neutralization IC50 [µg/mL]
B1 | 0.00931
B2 | > 1
B3 | 0.0802
B4 | > 1
B5 | 0.719
B6 | > 1
B7 | > 1
B8 | > 1
B9 | > 1
B10 | > 1
B11 | > 1
B12 | 0.0115
B13 | > 1
B14 | 0.0111

target: SARS-CoV-2 Wuhan-Hu-1 spike pseudovirus; test: pseudovirus neutralization IC90; higher = weaker neutralization
Description: as §1

Binder | pseudovirus neutralization IC90 [µg/mL]
B1 | 0.0588
B2 | > 1
B3 | > 1
B4 | > 1
B5 | > 1
B6 | > 1
B7 | > 1
B8 | > 1
B9 | > 1
B10 | > 1
B11 | > 1
B12 | 0.0602
B13 | > 1
B14 | 0.198

target: SARS-CoV-2 Delta (B.1.617.2) spike RBD; test: ELISA binding EC50; higher = weaker binding; ELISA of recombinant human antibody on coated antigen, from 10 µg/ml in fourfold dilutions; four-parameter fit.

Binder | ELISA binding EC50 [µg/mL]
B1 | 0.00749
B2 | 0.218
B3 | 0.00559
B4 | 0.0412
B5 | 0.05
B6 | > 1
B7 | > 1
B8 | 0.0245
B9 | 0.00271
B10 | 0.0144
B11 | 0.041
B12 | > 1
B13 | 0.451
B14 | 0.471

target: SARS-CoV-2 Omicron BA.1 spike protein; test: as above

Binder | ELISA binding EC50 [µg/mL]
B1 | 0.00789
B2 | 0.418
B3 | 0.0123
B4 | 0.066
B5 | 0.00604
B6 | > 1
B7 | > 1
B8 | 0.0149
B9 | 0.0502
B10 | 0.00917
B11 | 0.058
B12 | 0.0301
B13 | > 1
B14 | 0.00296

target: SARS-CoV-2 Wuhan-Hu-1 spike receptor-binding domain; test: as above

Binder | ELISA binding EC50 [µg/mL]
B1 | 0.00338
B2 | 0.00445
B3 | 0.00371
B4 | 0.0029
B5 | 0.00556
B6 | 0.208
B7 | 0.609
B8 | 0.00242
B9 | 0.00143
B10 | 0.00365
B11 | 0.00439
B12 | 0.00374
B13 | 0.0151
B14 | 0.00338

Recombinant human monoclonal antibodies (heavy:light variable regions). ELISA EC50 on the named antigen, from 10 µg/ml down; IC50 / IC90 against spike pseudovirus on 293T-ACE2 cells, 48 h; lower = stronger. Calls: IC50 above 1,000 ng/ml = non-neutralizing; EC50 above 1,000 ng/ml = non-binder. The source prints 1000 for neutralization that was not reached; it is given as >1000 ng/ml. Only binders of the Wuhan-Hu-1 domain have neutralization values.
